Measured values reported in the supplement of paper PMC8728848.
The other results are listed elsewhere or left out.

Columns and labels:
Assay in all cases: glycan array binding signal (z-score within array); higher = stronger binding
Settings in all cases: glycan notation: IUPAC condensed, linker removed
Fuc(a1-2)Gal = target: Fuc(a1-2)Gal
Method in brief: (§1)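 Negative Z-scores can be read as non-binding. The Z-score is calculated within each array and then averaged across arrays of one protein sequence at different concentrations or buffers and across linkers. Arrays, 3228 in all, were curated from the Consortium for Functional Glycomics database and kept only where the protein sequence was available.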

Fuc(a1-2)Gal(b1-3)GalNAc = target: Fuc(a1-2)Gal(b1-3)GalNAc
Method in brief: as §1

[1] = target: Fuc(a1-2)Gal(b1-3)GalNAc(b1-3)Gal
Method in brief: as §1

[2] = target: Fuc(a1-2)Gal(b1-3)GalNAc(b1-3)Gal(a1-4)Gal(b1-4)Glc
Method in brief: as §1

[3] = target: Fuc(a1-2)Gal(b1-3)GalNAc(b1-4)[Neu5Ac(a2-3)]Gal(b1-4)Glc
Method in brief: as §1

Fuc(a1-2)Gal(b1-3)GlcNAc = target: Fuc(a1-2)Gal(b1-3)GlcNAc
Method in brief: as §1

[4] = target: Fuc(a1-2)Gal(b1-3)GlcNAc(b1-3)Gal(b1-4)Glc
Method in brief: as §1

[5] = target: Fuc(a1-2)Gal(b1-3)[Fuc(a1-4)]GlcNAc
Method in brief: as §1

Fuc(a1-2)Gal(b1-4)Glc = target: Fuc(a1-2)Gal(b1-4)Glc
Method in brief: as §1

Fuc(a1-2)Gal(b1-4)Glc6S = target: Fuc(a1-2)Gal(b1-4)Glc6S
Method in brief: as §1

Fuc(a1-2)Gal(b1-4)GlcNAc = target: Fuc(a1-2)Gal(b1-4)GlcNAc
Method in brief: as §1

[6] = target: Fuc(a1-2)Gal(b1-4)GlcNAc(b1-3)Gal(b1-4)GlcNAc
Method in brief: as §1

[7] = target: Fuc(a1-2)Gal(b1-4)GlcNAc(b1-3)Gal(b1-4)GlcNAc(b1-3)Gal(b1-4)GlcNAc
Method in brief: as §1

[8] = target: Fuc(a1-2)Gal(b1-4)GlcNAc6S
Method in brief: as §1

[9] = target: Fuc(a1-2)Gal(b1-4)[Fuc(a1-3)]GlcNAc
Method in brief: as §1

[10] = target: Fuc(a1-2)Gal(b1-4)[Fuc(a1-3)]GlcNAc(b1-3)Gal(b1-4)[Fuc(a1-3)]GlcNAc
Method in brief: as §1

[11] = target: Fuc(a1-2)Gal(b1-4)[Fuc(a1-3)]GlcNAc(b1-3)Gal(b1-4)[Fuc(a1-3)]GlcNAc(b1-3)Gal(b1-4)[Fuc(a1-3)]GlcNAc
Method in brief: as §1

Fuc(a1-2)Gal6S(b1-4)Glc = target: Fuc(a1-2)Gal6S(b1-4)Glc
Method in brief: as §1

[12] = target: Fuc(a1-2)Gal6S(b1-4)Glc6S
Method in brief: as §1

[13] = target: Fuc(a1-2)Gal6S(b1-4)GlcNAc
Method in brief: as §1

Fuc(a1-2)[Gal(a1-3)]Gal = target: Fuc(a1-2)[Gal(a1-3)]Gal
Method in brief: as §1

[14] = target: Fuc(a1-2)[Gal(a1-3)]Gal(b1-3)GlcNAc
Method in brief: as §1

[15] = target: Fuc(a1-2)[Gal(a1-3)]Gal(b1-4)Glc
Method in brief: as §1

[16] = target: Fuc(a1-2)[Gal(a1-3)]Gal(b1-4)GlcNAc
Method in brief: as §1

[17] = target: Fuc(a1-2)[Gal(a1-3)]Gal(b1-4)[Fuc(a1-3)]GlcNAc
Method in brief: as §1

[18] = target: Fuc(a1-2)[Gal(a1-4)]Gal(b1-4)GlcNAc
Method in brief: as §1

[19] = target: Fuc(a1-2)[GalNAc(a1-3)]Gal
Method in brief: as §1

[20] = target: Fuc(a1-2)[GalNAc(a1-3)]Gal(b1-3)GlcNAc
Method in brief: as §1

[21] = target: Fuc(a1-2)[GalNAc(a1-3)]Gal(b1-4)Glc
Method in brief: as §1

[22] = target: Fuc(a1-2)[GalNAc(a1-3)]Gal(b1-4)GlcNAc
Method in brief: as §1

[23] = target: Fuc(a1-2)[GalNAc(a1-3)]Gal(b1-4)[Fuc(a1-3)]GlcNAc
Method in brief: as §1

[24] = target: Fuc(a1-2)[GalNAc(a1-4)]Gal(b1-4)GlcNAc
Method in brief: as §1

[25] = target: Fuc(a1-2)[GalNAc(b1-3)]Gal
Method in brief: as §1

Fuc(a1-3)GlcNAc = target: Fuc(a1-3)GlcNAc
Method in brief: as §1

[26] = target: Fuc(a1-3)[Gal(b1-4)]Glc6S
Method in brief: as §1

[27] = target: Fuc(a1-3)[Gal(b1-4)]GlcNAc
Method in brief: as §1

[28] = target: Fuc(a1-3)[Gal(b1-4)]GlcNAc(b1-2)Man(a1-3)[Fuc(a1-3)[Gal(b1-4)]GlcNAc(b1-2)Man(a1-6)]Man(b1-4)GlcNAc(b1-4)GlcNAc
Method in brief: as §1

[29] = target: Fuc(a1-3)[Gal(b1-4)]GlcNAc(b1-2)Man(a1-6)[Gal(b1-4)GlcNAc(b1-2)Man(a1-3)]Man(b1-4)GlcNAc(b1-4)GlcNAc
Method in brief: as §1

[30] = target: Fuc(a1-3)[Gal(b1-4)]GlcNAc(b1-3)Gal(b1-3)[Fuc(a1-4)]GlcNAc
Method in brief: as §1

[31] = target: Fuc(a1-3)[Gal(b1-4)]GlcNAc(b1-4)Gal(b1-4)[Fuc(a1-3)]GlcNAc
Method in brief: as §1

[32] = target: Fuc(a1-3)[Gal(b1-4)]GlcNAc(b1-4)Gal(b1-4)[Fuc(a1-3)]GlcNAc(b1-4)Gal(b1-4)[Fuc(a1-3)]GlcNAc
Method in brief: as §1

[33] = target: Fuc(a1-3)[Gal(b1-4)]GlcNAc6S
Method in brief: as §1

[34] = target: Fuc(a1-3)[Gal3S(b1-4)]Glc6S
Method in brief: as §1

[35] = target: Fuc(a1-3)[Gal3S(b1-4)]GlcNAc
Method in brief: as §1

[36] = target: Fuc(a1-3)[Gal3S(b1-4)]GlcNAc6S
Method in brief: as §1

[37] = target: Fuc(a1-3)[GalNAc(b1-4)]GlcNAc
Method in brief: as §1

Fuc(a1-4)GlcNAc = target: Fuc(a1-4)GlcNAc
Method in brief: as §1

Fuc(b1-3)GlcNAc = target: Fuc(b1-3)GlcNAc
Method in brief: as §1

Gal(a1-2)Gal = target: Gal(a1-2)Gal
Method in brief: as §1

Gal(a1-3)Gal = target: Gal(a1-3)Gal
Method in brief: as §1

Gal(a1-3)Gal(b1-3)GlcNAc = target: Gal(a1-3)Gal(b1-3)GlcNAc
Method in brief: as §1

Gal(a1-3)Gal(b1-4)Glc = target: Gal(a1-3)Gal(b1-4)Glc
Method in brief: as §1

Gal(a1-3)Gal(b1-4)GlcNAc = target: Gal(a1-3)Gal(b1-4)GlcNAc
Method in brief: as §1

[38] = target: Gal(a1-3)Gal(b1-4)[Fuc(a1-3)]GlcNAc
Method in brief: as §1

Gal(a1-3)GalNAc = target: Gal(a1-3)GalNAc
Method in brief: as §1

[39] = target: Gal(a1-3)[Gal(a1-4)]Gal(b1-4)GlcNAc
Method in brief: as §1

Gal(a1-4)Gal(b1-4)Glc = target: Gal(a1-4)Gal(b1-4)Glc
Method in brief: as §1

Gal(a1-4)Gal(b1-4)GlcNAc = target: Gal(a1-4)Gal(b1-4)GlcNAc
Method in brief: as §1

Gal(a1-4)GlcNAc = target: Gal(a1-4)GlcNAc
Method in brief: as §1

Gal(a1-6)Glc = target: Gal(a1-6)Glc
Method in brief: as §1

B1: CBM32-1 (Clostridium perfringens) (protein)
chain: MGSSHHHHHHSSGLVPRGSHMASGVEITEGVTVTAKGNTEGNTADLAIDGDLSTYWESSNDYKWIEVDLGGIYELSKIEIFNKDEAVYKYNIYASEDGENFNKIAYKNNDNVSDSNGNVHTIDNVRAGKIRIDVVQNSNSDRVNIAEINVFG
B1 was tested, and the “glycan array binding signal (z-score)” value (Fuc(a1-2)Gal) was -0.288, the “glycan array binding signal (z-score)” value (Fuc(a1-2)Gal(b1-3)GalNAc) was -0.463 and the “glycan array binding signal (z-score)” value [1] was 1.21. For the same binder, the “glycan array binding signal (z-score)” value [2] was -0.205, the “glycan array binding signal (z-score)” value [3] was -0.373 and the “glycan array binding signal (z-score)” value (Fuc(a1-2)Gal(b1-3)GlcNAc) was -0.171. The “glycan array binding signal (z-score)” value [4] was -0.71, the “glycan array binding signal (z-score)” value [5] was -0.766 and the “glycan array binding signal (z-score)” value (Fuc(a1-2)Gal(b1-4)Glc) was -0.923. The “glycan array binding signal (z-score)” value (Fuc(a1-2)Gal(b1-4)Glc6S) was 0.028, the “glycan array binding signal (z-score)” value (Fuc(a1-2)Gal(b1-4)GlcNAc) was -0.213 and the “glycan array binding signal (z-score)” value [6] was -0.461. For the same binder, the “glycan array binding signal (z-score)” value [7] was 0.515, the “glycan array binding signal (z-score)” value [8] was -0.04 and the “glycan array binding signal (z-score)” value [9] was -0.577. For the same binder, the “glycan array binding signal (z-score)” value [10] was -0.336, the “glycan array binding signal (z-score)” value [11] was 0.212 and the “glycan array binding signal (z-score)” value (Fuc(a1-2)Gal6S(b1-4)Glc) was -0.366. The “glycan array binding signal (z-score)” value [12] was 0.812, the “glycan array binding signal (z-score)” value [13] was -0.54 and the “glycan array binding signal (z-score)” value (Fuc(a1-2)[Gal(a1-3)]Gal) was 1.9. For the same binder, the “glycan array binding signal (z-score)” value [14] was -0.527, the “glycan array binding signal (z-score)” value [15] was -0.705 and the “glycan array binding signal (z-score)” value [16] was -0.226. For the same binder, the “glycan array binding signal (z-score)” value [17] was -0.365, the “glycan array binding signal (z-score)” value [18] was -0.647 and the “glycan array binding signal (z-score)” value [19] was 0.167. The “glycan array binding signal (z-score)” value [20] was -0.853, the “glycan array binding signal (z-score)” value [21] was -0.136 and the “glycan array binding signal (z-score)” value [22] was -0.319. For the same binder, the “glycan array binding signal (z-score)” value [23] was -0.114, the “glycan array binding signal (z-score)” value [24] was 0.059 and the “glycan array binding signal (z-score)” value [25] was -0.529. The “glycan array binding signal (z-score)” value (Fuc(a1-3)GlcNAc) was 0.369, the “glycan array binding signal (z-score)” value [26] was 0.569 and the “glycan array binding signal (z-score)” value [27] was -0.371. For the same binder, the “glycan array binding signal (z-score)” value [28] was 1.55, the “glycan array binding signal (z-score)” value [29] was -0.262 and the “glycan array binding signal (z-score)” value [30] was -0.493. For the same binder, the “glycan array binding signal (z-score)” value [31] was 0.331, the “glycan array binding signal (z-score)” value [32] was -0.707 and the “glycan array binding signal (z-score)” value [33] was -0.235. For the same binder, the “glycan array binding signal (z-score)” value [34] was 1.22, the “glycan array binding signal (z-score)” value [35] was -0.283 and the “glycan array binding signal (z-score)” value [36] was 1.6. The “glycan array binding signal (z-score)” value [37] was -0.154, the “glycan array binding signal (z-score)” value (Fuc(a1-4)GlcNAc) was -0.027 and the “glycan array binding signal (z-score)” value (Fuc(b1-3)GlcNAc) was 0.161. For the same binder, the “glycan array binding signal (z-score)” value (Gal(a1-2)Gal) was -0.565, the “glycan array binding signal (z-score)” value (Gal(a1-3)Gal) was -0.265 and the “glycan array binding signal (z-score)” value (Gal(a1-3)Gal(b1-3)GlcNAc) was -0.526. The “glycan array binding signal (z-score)” value (Gal(a1-3)Gal(b1-4)Glc) was 0.175, the “glycan array binding signal (z-score)” value (Gal(a1-3)Gal(b1-4)GlcNAc) was -0.092 and the “glycan array binding signal (z-score)” value [38] was 0.312. The “glycan array binding signal (z-score)” value (Gal(a1-3)GalNAc) was 0.851, the “glycan array binding signal (z-score)” value [39] was -0.835 and the “glycan array binding signal (z-score)” value (Gal(a1-4)Gal(b1-4)Glc) was -0.237. The “glycan array binding signal (z-score)” value (Gal(a1-4)Gal(b1-4)GlcNAc) was -0.181, the “glycan array binding signal (z-score)” value (Gal(a1-4)GlcNAc) was -0.924 and the “glycan array binding signal (z-score)” value (Gal(a1-6)Glc) was -0.078.
